Laboratory results from a compilation of properties of binary mixtures (doi:10.1021/je300093r).
Some of these densities may be calculated back from excess volumes.

Assay: xn = mol fraction of the nth substance listed
Settings: 101 kPa

CCCC[n+]1ccccc1.F[B-](F)(F)F + CCCC[n+]1ccccc1.O=S(=O)([N-]S(=O)(=O)C(F)(F)F)C(F)(F)F
x2 = 0
Settings | mass density [kg/m3]
313.15 K | 1203.5
323.15 K | 1196.7
333.15 K | 1189.9
343.15 K | 1183.2

CCCC[n+]1ccccc1.O=S(=O)([N-]S(=O)(=O)C(F)(F)F)C(F)(F)F + CCCC[n+]1ccccc1.F[B-](F)(F)F
mass density [kg/m3]
Settings | 303.15 K | 313.15 K | 323.15 K | 333.15 K | 343.15 K | 353.15 K
x1 = 0.0442 | 1223.8 | 1216.8 | 1209.8 | 1202.8 | 1195.9 | 1189.1
x1 = 0.1119 | 1246.1 | 1238.9 | 1231.7 | 1224.6 | – | –
x1 = 0.2162 | – | 1270.5 | 1263 | 1255.5 | – | 1240.7
x1 = 0.3217 | 1307.2 | 1299.4 | 1291.6 | 1283.8 | 1276.1 | 1268.5
x1 = 0.4327 | 1335 | – | 1318.8 | 1310.7 | 1302.6 | –
x1 = 0.5429 | 1360.1 | – | 1343.3 | 1335 | 1326.7 | –
x1 = 0.6523 | 1382.8 | – | 1365.5 | – | 1348.4 | 1339.9
x1 = 0.7643 | – | 1395.3 | 1386.4 | 1377.6 | 1368.9 | 1360.1
x1 = 0.8822 | 1424.9 | – | 1406.7 | 1397.7 | – | 1379.8
x1 = 0.9467 | 1435.5 | 1426.3 | 1417.1 | 1408 | 1398.9 | 1389.9
x1 = 1 | 1444 | 1434.7 | – | 1416.2 | 1407.1 | –
